32 variants from the GPR68 mutational scans of Howard et al. (2025) can be followed below.

B1: GPR68, Q15743 (parent)
chain: MGNITADNSSMSCTIDHTIHQTLAPVVYVTVLVVGFPANCLSLYFGYLQIKARNELGVYLCNLTVADLFYICSLPFWLQYVLQHDNWSHGDLSCQVCGILLYENIYISVGFLCCISVDRYLAVAHPFRFHQFRTLKAAVGVSVVIWAKELLTSIYFLMHEEVIEDENQHRVCFEHYPIQAWQRAINYYRFLVGFLFPICLLLASYQGILRAVRRSHGTQKSRKDQIQRLVLSTVVIFLACFLPYHVLLLVRSVWEASCDFAKGVFNAYHFSLLLTSFNCVADPVLYCFVSETTHRDLARLRGACLAFLTCSRTGRAREAYPLGAPEASGKSGAQGEEPELLTKLHPAFQTPNSPGSGGFPTGRLA

Variants of B1 are the subject of data set [1]. The experiment in a line: cAMP reporter score (Enrich2 score, wild type = 0); higher = more signal; HEK293T, FACS bins.
Data set [2] covers variants of B1. The experiment in a line: surface expression score (Enrich2 score, wild type = 0); higher = more signal; HEK293T, FACS bins.

The least precise scores are not listed. The source holds two more conditions with little spread; they are left out. In variant names, del marks residues removed and ins residues inserted between the two positions. For part of these data: The data file names ogerin without a concentration.

Take H245_V246insGS: the cAMP reporter score was -1.36 in data set [1] (pH 5.5); -0.757 in data set [1] (pH 6); -1.49 in data set [1] (pH 6, modulator: ogerin); -0.75 in data set [1] (pH 6.5, modulator: ogerin). Further, the surface expression score in data set [2] is -2.18.

Turning to L247_L248insG, the cAMP reporter score in data set [1] (pH 5.5) was -0.734; in data set [1] (pH 6), -1.05; in data set [1] (pH 6, modulator: ogerin), -1.71; in data set [1] (pH 6.5, modulator: ogerin) it was -0.941. The surface expression score in data set [2] is -2.06.

In the case of L248E, the cAMP reporter score is -2.17 in data set [1] (pH 5.5); -1.44 in data set [1] (pH 6); -1.01 in data set [1] (pH 6, modulator: ogerin); -0.492 in data set [1] (pH 6.5, modulator: ogerin). Further, the surface expression score in data set [2] was -0.747.

Turning to L248H, the cAMP reporter score in data set [1] (pH 5.5) was -0.788; in data set [1] (pH 6) it was -0.262; in data set [1] (pH 6, modulator: ogerin), -1.4; in data set [1] (pH 6.5, modulator: ogerin) it was -1.69. Further, in data set [2], the surface expression score was -0.885.

Take L248C: the cAMP reporter score in data set [1] (pH 5.5) was 0.42; in data set [1] (pH 6), -0.268; in data set [1] (pH 6, modulator: ogerin), 0.453; in data set [1] (pH 6.5, modulator: ogerin) it was -0.238. Moreover, the surface expression score in data set [2] was 0.46.

Take L248G: the cAMP reporter score was -1.3 in data set [1] (pH 5.5); -0.39 in data set [1] (pH 6); -1.06 in data set [1] (pH 6, modulator: ogerin); -0.359 in data set [1] (pH 6.5, modulator: ogerin). For the same variant, the surface expression score in data set [2] was -1.88.

For the variant L248A, the cAMP reporter score in data set [1] (pH 5.5) was -0.45; in data set [1] (pH 6) it was -0.033; in data set [1] (pH 6, modulator: ogerin), -0.725; in data set [1] (pH 6.5, modulator: ogerin), -0.751. Besides, the surface expression score in data set [2] is -0.359.

Consider L248D, for which the cAMP reporter score in data set [1] (pH 5.5) is -1.07; in data set [1] (pH 6), -1.22; in data set [1] (pH 6, modulator: ogerin) it was -0.886; in data set [1] (pH 6.5, modulator: ogerin), -0.883. Besides, the surface expression score in data set [2] was -2.46.

Y244_H245del: the cAMP reporter score is 0.026 in data set [1] (pH 5.5); -0.244 in data set [1] (pH 6); -1.09 in data set [1] (pH 6.5, modulator: ogerin). In addition, the surface expression score in data set [2] is -2.

P243_Y244insGSG: the cAMP reporter score is -2.28 in data set [1] (pH 5.5); -1.1 in data set [1] (pH 6); -2.09 in data set [1] (pH 6, modulator: ogerin); -1.11 in data set [1] (pH 6.5, modulator: ogerin). For the same variant, the surface expression score in data set [2] is -2.59.

For the variant H245del, the cAMP reporter score in data set [1] (pH 5.5) is -1.51; in data set [1] (pH 6) it was -0.72; in data set [1] (pH 6, modulator: ogerin), -1.6; in data set [1] (pH 6.5, modulator: ogerin) it was -0.993. The surface expression score in data set [2] was -2.48.

On to L242_P243insG, for which the cAMP reporter score in data set [1] (pH 5.5) was -2.17; in data set [1] (pH 6), -1.57; in data set [1] (pH 6, modulator: ogerin) it was -1.65; in data set [1] (pH 6.5, modulator: ogerin), -1.46. Besides, the surface expression score in data set [2] was -2.29.

In the case of Y244S, the cAMP reporter score in data set [1] (pH 5.5) is -0.482; in data set [1] (pH 6) it was -0.204; in data set [1] (pH 6, modulator: ogerin) it was -0.713.

Turning to Y244C, the cAMP reporter score was -1.07 in data set [1] (pH 5.5); -1.06 in data set [1] (pH 6); -1.32 in data set [1] (pH 6, modulator: ogerin); -1.06 in data set [1] (pH 6.5, modulator: ogerin). In addition, the surface expression score in data set [2] is -1.13.

As to Y244T, the cAMP reporter score is -0.756 in data set [1] (pH 5.5); -1.21 in data set [1] (pH 6); -0.778 in data set [1] (pH 6.5, modulator: ogerin). For the same variant, the surface expression score in data set [2] was -2.16.

As for Y244Q, the cAMP reporter score in data set [1] (pH 5.5) is -1.35; in data set [1] (pH 6), -0.447; in data set [1] (pH 6, modulator: ogerin), -1.33; in data set [1] (pH 6.5, modulator: ogerin) it was -0.636. The surface expression score in data set [2] was -2.92.

Regarding Y244I, the cAMP reporter score in data set [1] (pH 5.5) is -0.776; in data set [1] (pH 6), -0.325; in data set [1] (pH 6, modulator: ogerin) it was -0.984.

In the case of Y244K, the cAMP reporter score in data set [1] (pH 5.5) is -0.986; in data set [1] (pH 6), -0.625; in data set [1] (pH 6, modulator: ogerin) it was -0.741; in data set [1] (pH 6.5, modulator: ogerin), -1.03. The surface expression score in data set [2] is -0.815.

Y244G: the cAMP reporter score was -0.402 in data set [1] (pH 5.5) and -0.663 in data set [1] (pH 6.5, modulator: ogerin). The surface expression score in data set [2] is -2.72.

With Y244D, the cAMP reporter score in data set [1] (pH 5.5) was -1.12; in data set [1] (pH 6) it was -1.05; in data set [1] (pH 6, modulator: ogerin), -1.81; in data set [1] (pH 6.5, modulator: ogerin) it was -1.24.

As for Y244L, the cAMP reporter score in data set [1] (pH 5.5) is -0.256; in data set [1] (pH 6), -0.589; in data set [1] (pH 6, modulator: ogerin) it was -0.61; in data set [1] (pH 6.5, modulator: ogerin) it was -0.708. Further, the surface expression score in data set [2] was -0.564.

On to Y244N, for which the cAMP reporter score is -1.71 in data set [1] (pH 5.5); -1.24 in data set [1] (pH 6); -1.41 in data set [1] (pH 6, modulator: ogerin); -1.94 in data set [1] (pH 6.5, modulator: ogerin). In addition, the surface expression score in data set [2] is -2.32.

Turning to Y244E, the cAMP reporter score is -1.28 in data set [1] (pH 5.5); -1.63 in data set [1] (pH 6); -1.68 in data set [1] (pH 6, modulator: ogerin); -0.878 in data set [1] (pH 6.5, modulator: ogerin). Besides, in data set [2], the surface expression score is -1.36.

Turning to Y244A, the cAMP reporter score in data set [1] (pH 5.5) was -1.34; in data set [1] (pH 6) it was -1.19; in data set [1] (pH 6, modulator: ogerin), -1.1; in data set [1] (pH 6.5, modulator: ogerin), -1.05. In data set [2], the surface expression score is -2.75.

Regarding Y244H, the cAMP reporter score in data set [1] (pH 5.5) is -2.24; in data set [1] (pH 6), -1.62; in data set [1] (pH 6, modulator: ogerin) it was -0.937; in data set [1] (pH 6.5, modulator: ogerin), -1.69. The surface expression score in data set [2] was -0.272.

In the case of Y244V, the cAMP reporter score in data set [1] (pH 5.5) was -1.46; in data set [1] (pH 6), -1.24; in data set [1] (pH 6, modulator: ogerin) it was -1.65; in data set [1] (pH 6.5, modulator: ogerin) it was -1.2. The surface expression score in data set [2] was -1.5.

Y244M: the cAMP reporter score was -1.13 in data set [1] (pH 5.5); -1.08 in data set [1] (pH 6); -1.41 in data set [1] (pH 6, modulator: ogerin); -0.451 in data set [1] (pH 6.5, modulator: ogerin).

Turning to Y244W, the cAMP reporter score in data set [1] (pH 5.5) is -0.21; in data set [1] (pH 6) it was -0.58; in data set [1] (pH 6, modulator: ogerin), -0.762; in data set [1] (pH 6.5, modulator: ogerin), -1.16. Also, in data set [2], the surface expression score is -1.8.

Consider Y244F, for which the cAMP reporter score in data set [1] (pH 5.5) was 0.761; in data set [1] (pH 6), -1.86; in data set [1] (pH 6, modulator: ogerin), -0.676; in data set [1] (pH 6.5, modulator: ogerin) it was -2.74.

In the case of Y244R, the cAMP reporter score in data set [1] (pH 5.5) was -1.9; in data set [1] (pH 6, modulator: ogerin) it was -2.28. Besides, in data set [2], the surface expression score was -2.66.

With H245_V246del, the cAMP reporter score in data set [1] (pH 5.5) is -1.54; in data set [1] (pH 6), -1.4; in data set [1] (pH 6, modulator: ogerin), -1.54; in data set [1] (pH 6.5, modulator: ogerin), -1.36. Besides, the surface expression score in data set [2] was -2.13.

In the case of P243del, the cAMP reporter score in data set [1] (pH 5.5) is -1.63; in data set [1] (pH 6), -1.05; in data set [1] (pH 6, modulator: ogerin) it was -1.46; in data set [1] (pH 6.5, modulator: ogerin), -0.723. Also, in data set [2], the surface expression score was -2.17.
